For 87 compounds, GI50 and TGI results are on record in PubChem BioAssay (NCI).

Structures are written as SMILES.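 Cultured in 96-well plates, cells were exposed to test compound for 48 hours across five concentrations. Abbreviation: GI50, concentration required for 50% inhibition of growth. TGI is the concentration that stops growth completely.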

The subject of this assay is NCI-H322M lung. The experiment in a line: NCI-60 cell line screen, 48 h.

For `CCC(=O)OC1CCC2C3CCC(=O)OC3C(C)(CCC(=O)O)CC12C` (configuration not stated), the GI50 is 10.2 µM and the TGI was over 100 µM.

In the case of `S=C(Nc1ccccc1)Nc1ccccc1SC(/C=C/NNC1=NC(c2ccccc2)C(c2ccccc2)=NN1)c1ccccc1` (configuration not stated), the TGI was over 100 µM.

`COc1ccc(C(O)c2cc(OC)c(OC)c(OC)c2)cc1` (configuration not stated): the TGI is over 100 µM.

Turning to `C=C1C(=O)O[C@H]2[C@H]1CC/C(COC(=O)CCSSCCC(=O)OC/C1=C/CC[C@@]3(C)O[C@H]3[C@H]3OC(=O)C(=C)[C@@H]3CC1)=C\CC[C@@]1(C)O[C@@H]21`, the GI50 is 2.11 µM and the TGI stood at 5.8 µM.

As to `CCOC(=O)c1c(SCc2ccccc2)nc2c3ccccc3ccn12`, the TGI is over 100 µM.

`CN(C(=O)CCC(=O)O)c1ccccc1C(=O)O`: the TGI is over 100 µM.

In turn, `CC12OC3(C)OC(=O)C(c4ccccc4)(O1)C3(C)O2` (configuration not stated) registered a TGI of over 100 µM.

For `CC(=O)OC1Oc2ccccc2-c2oc(=O)c(-c3ccc(F)cc3)cc21` (configuration not stated), the GI50 is 42.2 µM and the TGI was over 100 µM.

Take `C=C1C(=O)O[C@H]2[C@H]1CC/C(COC(=O)CCCC(=O)OC/C1=C/CC[C@@]3(C)O[C@H]3[C@H]3OC(=O)C(=C)[C@@H]3CC1)=C\CC[C@@]1(C)O[C@@H]21`: the GI50 is 9.92 µM and the TGI came to 40.9 µM.

`Nc1nc(N)c2c(Cl)c(CNc3ccc(C(=O)NC(CC(=O)O)C(=O)O)cc3)ccc2n1` (configuration not stated) returned a TGI of over 100 µM.

As to `CN1c2ccccc2NC(CC(=O)O)C2CC=CN21` (configuration not stated), the TGI is over 100 µM.

In turn, `CC1=C2C(=O)c3ccccc3C(=O)[C@H]2C[C@@H](N2CCCC2=O)O1` registered a TGI of over 100 µM.

In turn, `O=C(CCc1ccc(O)c(O)c1)NCCc1cc(O)cc(OCc2ccccc2)c1` yielded a TGI of over 100 µM.

In turn, `CSc1ncnc2c1cnn2Cc1cn(CCCCO)nn1` had a TGI of over 100 µM.

`C/C(=N\NC(=O)c1ccncc1)c1ccccc1Cl` had a TGI of over 100 µM.

Compound `CCOC(=O)/C(C#N)=C/c1ccc(SCc2ccco2)c([N+](=O)[O-])c1` showed a TGI of over 100 µM.

For the compound `CC1(C)NC(C)(C)/C(=N\O)C(=NO)/C1=N/O`, the TGI is over 100 µM.

Take `CCCCOC(=O)C(=O)C(CC(CC)C(=O)c1ccccc1)C(=O)C=C(C)C` (configuration not stated): the TGI was over 100 µM.

Consider `CCOC(=O)c1ccc(NC(=O)O/N=C(/Cl)CC)cc1`, for which the TGI was determined as 30.5 µM.

`Cc1nc(N)nn1C1OCC(O)C(O)C1O` (configuration not stated) returned a TGI of over 100 µM.

`COc1ccc(Nc2nc3cc(C(F)(F)F)ccc3nc2C(=O)O)cc1` showed a TGI of 98 µM.

Take `O=C(CCCCN1CCOCC1)Nc1ccc(Cn2nnc3c2C(=O)c2nnn(Cc4ccc(NC(=O)CCCCN5CCOCC5)cc4)c2C3=O)cc1`: the GI50 is 0.185 µM and the TGI was found to be 0.639 µM.

For the compound `CCCNC(=S)N=Nc1c(O)[nH]c2ccccc12`, the TGI is over 100 µM.

The compound `NS(=O)(=O)c1nnc(NS(=O)(=O)c2ccc(F)cc2)s1` displayed a TGI of over 100 µM.

`CC1(C)c2ccccc2C(C)(C)C(C(=O)Nc2ccccc2)C1C(=O)O` (configuration not stated) had a TGI of over 100 µM.

The compound `CC(C)(C)c1cc(OCc2nnc3sc(-c4ccc(Cl)cc4)nn23)c(Cl)cc1OCc1nnc2sc(-c3ccc(Cl)cc3)nn12` registered a TGI of over 100 µM.

Consider `COc1cccc2c(Nc3ccc(S(=O)(=O)N=C(N)N)cc3)c3ccc([N+](=O)[O-])cc3nc12`, for which the TGI amounted to 66.4 µM.

For `Cc1cc(Nc2ccc3c(c2)OCO3)c2cc3c(cc2n1)OCO3`, the GI50 is 5.78 µM and the TGI was 47.5 µM.

For the compound `Nc1ccc(I)cn1`, the TGI is over 100 µM.

Turning to `CC[C@@]1(O)C(=O)OCc2c1cc1n(c2=O)Cc2c-1nc1ccccc1c2Cl`, the TGI worked out at 8.92 µM.

As for `CC1(C)CC[C@]2(C(N)=O)CC[C@]3(C)C(=CC[C@@H]4[C@@]5(C)C/C(=C/c6cccnc6)C(=O)C(C)(C)[C@@H]5CC[C@]43C)[C@@H]2C1`, the GI50 was 3.73 µM and the TGI was over 100 µM.

`O=C1C(Cl)N(c2ccc(Cl)cc2Cl)C1c1c[nH]c2ccccc12` (configuration not stated) displayed a TGI of over 100 µM.

Take `Cc1cc(C)n(C(=O)CSc2nc3ccc(I)cc3c(=O)n2Cc2ccccc2)n1`: the TGI was over 100 µM.

Turning to `NC1C(O)C(O)C(CO)OC1n1cc(F)c(=O)[nH]c1=O` (configuration not stated), the TGI was over 100 µM.

`Cc1cc2c3ccccc3nc2c2cc[nH]c(C)c12`: the TGI was over 100 µM.

For the compound `CC(=O)NC(CC(C)C)C(=O)NC(CC(C)C)C(=O)NC(C=O)CCCN=C(N)N` (configuration not stated), the TGI is over 100 µM.

Turning to `CCOP(=O)(/C=C/n1ccc(N)nc1=O)OCC`, the TGI is over 100 µM.

`CC(=O)OC1CCC2(C)C(CCC3C4CC=C(C5(C)OCCO5)C4(C)CCC32)C1` (configuration not stated) registered a TGI of over 100 µM.

For `CC(=O)C1C(=O)C(=O)N(c2ccc(Cl)c(Cl)c2)C1=O` (configuration not stated), the TGI was over 100 µM.

On to `CC(O)CCc1ccc(Oc2c3ccccc3nc3occc23)cc1` (configuration not stated), for which the GI50 was 6.1 µM and the TGI came out at 21.1 µM.

The compound `COc1cccc(N=Cc2cc(OC)c(OC)c(OC)c2)c1` showed a TGI of over 100 µM.

With `COc1cc2ccc1NC(=O)N1CCN(CC1)C(=O)Nc1ccc(cc1OC)-c1ccc(c(OC)c1)NC(=O)N1CCN(CC1)C(=O)Nc1ccc-2cc1OC`, the TGI was over 100 µM.

Compound `CCC1(O)CC(OC2CC(N(C)C)C(OC3CC(O)C(OC4CCC(=O)C(C)O4)C(C)O3)C(C)O2)c2c(cc3c(c2O)C(=O)c2c(O)ccc(O)c2C3=O)C1C(=O)OC` (configuration not stated) gave a TGI of 0.0261 µM.

The compound `C=CCOC(=O)C[C@H](NC(=O)[C@H](Cc1ccc(O)cc1)NCC(F)(F)F)C(=O)OCC=C` showed a TGI of over 100 µM.

`O=C(O)C1=CN=C(C(=O)O)NN1`: the TGI is over 100 µM.

In turn, `[N-]=[N+]=Nc1c(N2CCOCC2)c(Cl)nc2ccccc12` registered a TGI of over 100 µM.

Regarding `CCCN(CCC)c1ccc(CO)c(Cl)c1`, the GI50 is 55.9 µM and the TGI is over 100 µM.

`N#Cc1nc(C(O)c2ccccc2)oc1N` (configuration not stated) showed a TGI of over 100 µM.

For the compound `[Cl-].[Nd+3].[O-]/N=C(\c1ccccc1)c1ccccn1.[O-]/N=C(\c1ccccc1)c1ccccn1.[O-]/N=C(\c1ccccc1)c1ccccn1`, the GI50 was 32.4 µM and the TGI was over 100 µM.

On to `ClCCn1cnc2c(SCc3ccccc3Cl)ncnc21`, for which the GI50 is 17.9 µM and the TGI is over 100 µM.

`CC(C)CSCC1OC(n2cnc3c(N)nccc32)C(O)C1O` (configuration not stated) showed a TGI of over 100 µM.

The compound `COc1ccc(Nc2nc3c(N)cc(C(F)(F)F)cc3nc2-c2ccccc2)cc1OC` showed a TGI of over 100 µM.

`N#CC1(Cc2ccccc2[N+](=O)[O-])c2ccccc2C2C(N1C(=O)c1ccccc1)C2(Cl)Cl` (configuration not stated) gave a TGI of over 100 µM.

For the compound `O=C(N/N=C/c1cc(Cl)cc(Cl)c1[O-])c1ccccc1O.O=C(N/N=C/c1cc(Cl)cc(Cl)c1[O-])c1ccccc1O.[Cl-].[Fe+3]`, the GI50 was 10.6 µM and the TGI amounted to 22.4 µM.

With `O=C(O)CCCNS(=O)(=O)c1ccccc1`, the TGI is over 100 µM.

As to `COc1cc(/C=C2\N=C(c3ccccc3)N(c3nc4ccc(Sc5ccccc5)cc4[nH]3)C2=O)ccc1O`, the TGI is over 100 µM.

With `NCCCN1CCN(c2ccccc2)CC1`, the TGI was over 100 µM.

Take `CCOC(=O)N1Cc2ccoc2C1`: the TGI was over 100 µM.

For the compound `Cc1ccccc1N(CC(=O)O)S(=O)(=O)c1ccccc1`, the TGI was over 100 µM.

`COC(=O)C(Cc1ccc2c(c1)CCCC2)Cc1cc2c(cc1C(O)OC)CCC2` (configuration not stated): the TGI is over 100 µM.

`COc1ccc(/C=c2/sc3n(c2=O)NC2(CCCCC2)NN=3)cc1` gave a TGI of over 100 µM.

For `O=C(Nc1cccc(Cl)c1)Nc1nccs1`, the GI50 was 24 µM and the TGI worked out at 82.4 µM.

For the compound `CC(=O)c1cc(I)c(O)c2ncccc12`, the TGI was over 10 µM.

On to `CC(=O)OCCOCn1c2c(c(=O)[nH]c1=O)CCC2`, for which the TGI was over 100 µM.

`COC(=O)C#Cc1cccc(OC)c1OC`: the TGI was over 100 µM.

`O=C(Nc1ccccc1)c1cc(S(=O)(=O)n2cc[nH]c2=O)c(S)cc1Cl` yielded a TGI of over 100 µM.

Take `CCCCCCCC(=O)SCC/C=C/[C@@H]1CC(=O)NCc2cccc(n2)CN(Cc2ccc3ccccc3c2)CC(=O)N[C@@H](C(C)C)C(=O)O1`: the GI50 is 46.7 µM and the TGI is over 100 µM.

With `O=C(N/N=C/c1c(Cl)cccc1Cl)c1cccnc1Nc1cccc(C(F)(F)F)c1`, the GI50 was 3.82 µM and the TGI was over 100 µM.

Regarding `N#CC1=C(N)Oc2c(ccc3ccccc23)C1c1cccs1` (configuration not stated), the GI50 is 0.0531 µM and the TGI turned out to be 20.1 µM.

As to `C[C@]12CCC(=O)CC1CC[C@@H]1C2CC[C@@]2(C)C1CC[C@@H]2OC(=O)CC[Se][Se]CCC(=O)O[C@H]1CCC2[C@@H]3CCC4CC(=O)CC[C@]4(C)C3CC[C@@]21C` (some centres not stated), the GI50 is 2.63 µM and the TGI came out at 6.29 µM.

The compound `NCCc1ccc2oc3cc(=O)c4ccccc4c-3nc2c1` showed a TGI of 10.1 µM.

On to `OCCCNCc1ccncc1`, for which the TGI is over 100 µM.

For `O=C1CCC2(c3ccc(F)cc3)Nc3ncccc3N12` (configuration not stated), the TGI was over 100 µM.

The compound `O=c1[nH]c2cc(F)c(F)cc2nc1Cc1ccccc1` had a TGI of over 100 µM.

`S=C1N=C2C(=N1)n1c3c(c4ccccc41)CCCC23` (configuration not stated): the TGI was over 100 µM.

For the compound `Cc1nn(CCO)c(C)c1N=[N+]([O-])c1c(C)nn(CCO)c1C`, the GI50 was 17.5 µM and the TGI came to 34.3 µM.

Turning to `O=S(=O)(Nc1ccc(Cl)cc1)c1ccc(-c2cnc(C3CC3)o2)cc1`, the GI50 is 3.42 µM and the TGI stood at 18.2 µM.

The compound `CC(=O)N(O)CCCCCNC(=O)CCC(=O)N(O)CCCCCNC(=O)CCC(=O)N(O)CCCCCN` showed a TGI of over 100 µM.

Compound `COC1(OC)CC(CO)(CNc2nc(N)nc(Cl)c2C=O)C1` returned a TGI of over 100 µM.

For the compound `CCCc1[nH]nc(C(N)=O)c1N=NN(C)C`, the TGI was over 100 µM.

For the compound `COc1nc(NC2OCC(OC(C)=O)C(OC(C)=O)C2OC(C)=O)c(-c2csc(N)n2)c(=O)n1C` (configuration not stated), the TGI was over 100 µM.

As for `O=C(O)c1ccccc1Sc1ccccc1[N+](=O)[O-]`, the TGI was over 100 µM.

Compound `COC(=O)C1=C(C)C(=O)[C@H]2C(C(=O)OC)CCCC[C@@H]12` (some centres not stated) had a TGI of over 100 µM.

For the compound `CCCNc1[nH]c(C(=O)c2ccccc2)c(N)c1C(=S)Nc1ccccc1`, the TGI was over 100 µM.

`CC1=NN(C(=O)c2ccc(Cl)cc2)C(=O)C1N=Nc1ccc(S(=O)(=O)Nc2ncccn2)cc1` (configuration not stated) yielded a TGI of over 100 µM.

For `ClC1=C(Cl)C(Cl)(Cl)SS1`, the TGI is over 10 µM.

As for `O=Cc1cn(Cc2ccc(Cl)cc2)c2ccccc12`, the GI50 was 4.87 µM and the TGI was over 100 µM.
